Results taken from the supplement of paper PMC3724861.
The list shows a part of the results.

system: T1, Caupolican (Caup) homeodomain DNA-binding domain; assay: PBM E-score (8-mer, recovered from the published 9-mer minima) (E-score (dimensionless, -0.5 to 0.5)); Drosophila protein; higher = stronger relative binding preference, active = 0.31 or more
T1 sequence: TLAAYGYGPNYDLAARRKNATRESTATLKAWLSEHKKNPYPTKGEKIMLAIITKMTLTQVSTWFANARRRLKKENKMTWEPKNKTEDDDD
Summary of the method: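 Caup's homeodomain DNA-binding domain (residues 214-303) was made by in vitro transcription and translation and applied at 100 nM to custom-designed protein binding microarrays. Each value is an enrichment score that gives relative binding preference for a short DNA word, with higher meaning stronger. The 8-mer values were recovered from published 9-mer scores, each of which was the minimum of its two constituent 8-mer scores. A cutoff of 0.31 marks candidate sites.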

PBM E-score, ≥ 0.0794:
ACGAGCCA

PBM E-score, ≥ 0.197:
ATAACTTA

PBM E-score, ≥ -0.00773:
ATCTGCCA

PBM E-score, ≥ 0.0143:
TGCTTCCA

PBM E-score, ≥ 0.0835:
ACCACACA

PBM E-score, ≥ 0.148:
ACAGGAGA

PBM E-score, ≥ 0.162:
ACGACTAT

PBM E-score, active:
ATGACATC 0.333, TGACAACA 0.377, ACTTGTAA 0.403, TATGTCAA ≥ 0.359, GACATGCC 0.35, ACGAACAT 0.349, AGACATGA 0.341, AACAACAT 0.409, GACATAAC 0.325

PBM E-score, ≥ 0.0397:
AATCGCGA

PBM E-score, ≥ 0.098:
ATTGACTG

PBM E-score, inactive:
TGCGGCAA -0.0363, AGAAAGAT 0.0904, CTTCCTTC -0.186, CATACTTC 0.0775, CTATGCTC 0.0374, AAACGCTG 0.0147, ATTAGGGA -0.0365, GCCCACAC -0.144, AATAGGGG -0.14, CGCAGGAG -0.175, ACGGTAGT 0.0922, AAGGTGTC 0.129, AATATCTA 0.145, ATTAAACA 0.271, GAACCTCC -0.166, GGTGACGA 0.0261, CAGCTCCC -0.166, TTCAGGAA -0.0421, CTTGCCAA 0.0457, AAAGACCA -0.0885, CCCTAGGG -0.253, CACCTCAA -0.0613, ATGAACGA 0.103, TGACCAAA 0.0602, ATTAGGCG -0.0369, AATAATCT 0.112, GGAACCTA -0.0383, CGCCTACG -0.147, ACTGAATG 0.0165, CCGTAAGG -0.166, GTTAGATA 0.172, ACTCGCAT -0.0103, CACATGCC 0.0641, CACGCGAG -0.0125, GAGCAGAC -0.0808, AGAGGTGG -0.107, AGTAAAGG -0.0118, ACTAGGCC -0.164, CGCGAGGA -0.0824, AAATAAGC -0.0182, AATATGTC 0.297, GCTGGTCC -0.114, CGGTACCG -0.116, ACGGTGGG -0.165, ATCGTAAC 0.0898, GGCTTTTA -0.0379, GATTCCGC -0.0981, TCCAAGCA 0.0075, CACGGTCG -0.034, CTGTCTAA 0.0213, TCTAGGCA -0.0559, CCCGTGTC 0.145, CAGAGGAA -0.0465, TGTCGTAA 0.229, CCATTCGC -0.177, CGAAAAGC -0.0881, GCCAACTA -0.0226, ATTTAGTC 0.0884, CAGATTGC 0.0419, ACCGCCCT -0.146, GGCGGGAA -0.177, CTCATCCC -0.0874, CACCTCAG -0.0141, CGTGAGGC -0.146, CAAGGCCA 0.00207, AGGGATCG -0.00681, CCCGTTGA -0.0801, GGCGGACC -0.262, GCCAGCAA -0.125, CTAAACAC 0.182, ACGACTAA 0.0797, AAAGTAAG 0.0511, CATCGGGC -0.144, TGGATACA 0.221, GGCGCCAC -0.232, CAGCTTCC -0.193, GTGGGAAC -0.0676, CGCCGACG -0.223, ACACCCCC -0.103, CATCGATA 0.19, AGACATTC 0.177, CCAAAGAA -0.0979, CAGACCAG -0.0755, CCTGTGCA -0.0159, AGTCTAAT 0.0485, GATTGACA 0.276, AGGGTCTG -0.156, GATTGACC -0.046, GACTGATC 0.0481, AGCCATCG -0.00355, AAGCCCGC -0.226, GCCACAAC 0.00109, CCACAGGC -0.236, AGAGCGCC -0.211, AGTACCGA 0.0457, CACTGTAG 0.0607, ATAGATAA 0.137, ACTCGACC -0.0389, AAGAGAGC -0.186, CCGGTAAA -0.024, GGCAAGGA -0.11, CAGCACTG -0.137, CCATAAGC -0.0898, AAGTCGCA 0.0117, CCGATCCG -0.0385, ATGGCGCC -0.186, AGACGGCA -0.0383, CCTATCGC -0.166, ATACCTCG 0.112, AAGCGGGC -0.228, AAATTGTT 0.177, CTCGCTTA -0.0736, ATATGGTC 0.105, CCACGCAC -0.144, GGAGGGCC -0.279, CTGACCTA 0.0422, ACAGCTGC -0.0304, ATAACCTG 0.124, ATGATTGA 0.126, AACCGCAG -0.179, ACGACTCC -0.031, CATCATGA 0.11, ACCGCTGC -0.148, CATTGTAA 0.276, CACTGTTA 0.0593, AACCGAGG -0.103, CGTTCCTC -0.131, CCTAACGC -0.159, AGCTGAAT 0.0188, CATCAGTA 0.176, AGTGGAAT -0.0202, CGACTGAG -0.188, CATTAACA 0.234, GAGTTGTA 0.24, CCCCGCCG -0.23, ACTCCCAG -0.0401, ACAGGATG 0.249, CATCCGAC 0.0265, ACATCCGC 0.134, ATCAGCCG -0.0947, TGGGAGAA -0.106, CTATTAAC 0.178, CAATAGCG -0.101, GTGTTGCA 0.184, AGCCCTAC -0.0687, GTCATCTA 0.0593, AGAAATCT -0.0884, GGGATTAA 0.0457, ATAAGGAA 0.0175, CATCTCCA -0.0479, CCGGGACG -0.22, ATTTTCGG -0.0124, TTATACAA 0.28, ACACATTG 0.201, CGCTGTAA 0.138, ACTGCAGT 0.0445, AGGGCCAG -0.228, AGAATTCA -0.0191, CTTCTGGA -0.0374, GGCCTCCC -0.367, ATTCACAC 0.145, GCTACGCA -0.151, AAGAGCGT -0.0251, GGAACTTA -0.0199, GCTTCTGA -0.0992, CCCCTCAC -0.178, CCTAGGAC -0.0698, GAGTCAGC -0.111, GTGAGCAA 0.00908, GCGATGCC -0.178, ACAAATCG 0.118, AAGGCCCG -0.268, ATTGGGGC -0.183, AGCATATG 0.114, AAGATAGG 0.0556, GGTATATA 0.0845, AGCTCCAT -0.0621, GTCTATAA 0.152, CATGAGGC -0.122, TAAACCCA 0.0711, CTTATCGA 0.129, AGATAGAA 0.0568, ATCAACAG 0.109, ACAGGGAC 0.0219, CTCCGTGC -0.193, CACCCGCA -0.198, GCGCTTAC -0.124, ACTCAAGT 0.079, TGCGGACA 0.0958, GGGCTACA 0.0237, AGTGTAGG 0.0998, CACAGAGC 0.00442, AGATTTTG 0.062, ACTGATTC 0.136, GAAATTCA 0.0378, CTTAGCAA -0.0329, CACGTGCA 0.0826, GTCGCGAC 0.0891, CCGCAAGC -0.198, CGGTAAGC -0.155, AGCTTAAA 0.00664, AACCTATG 0.138, ATGAGGGC -0.0745, GCTTCAAA -0.018, GGACCTCA -0.132, CTAACTTC 0.0814

PBM E-score, ≥ 0.0276:
ACTCCCAT
